Measured values published in PubChem BioAssay AID686971 (National Center for Advancing Translational Sciences (NCATS), 2013).
About 7,500 (2.1%) of roughly 360,000 compounds were called active. The inconclusive results got no clear call from the source; some entries with a clear call stand among them for comparison. Calls come from the whole dose curve; as a rule, active = well fitted cell-killing curve with a large enough effect; inconclusive = small, poorly fitted or top-dose-only effect, or effect the other way, or another doubt; inactive = no such curve, though single readings can be large or run the other way. Potencies of inconclusive entries are left out as doubtful fits.

Assay: qHTS for induction of synthetic lethality in tumor cells producing 2HG: qHTS for the HT-1080-IDH1KD cell line;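 for activity, negative = toxicity: 0% = DMSO wells and -100% = cell-free medium wells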
Settings: HT-1080 IDH1 knockdown viability, ATP luminescence, 48 h; activity, negative = toxicity: at 46.1 µM (top of the series) unless noted
In short: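 % activity derives from luminescence (CellTiter-Glo), normalised to DMSO and no-cell wells. HT-1080-IDH1KD cells, 750/well, had 48 h compound exposure at 37 °C.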
Potency is the fitted concentration of half-maximal effect; tags give direction and shape of the fitted curve.

Row | SMILES | Potency | activity, negative = toxicity
1 | COc1ccc(OCc2cc(C(=O)NC3Cc4ccccc4C3)no2)c(Cl)c1 | inconclusive [cytotoxic, single point] | –
2 | CC1C(c2ccccc2)N(C)C(c2ccccc2)C(C)C1(O)C#Cc1ccccc1 (stereo not drawn) | inconclusive [cytotoxic, single point] | –
3 | Cc1cc(Br)cn2c(Cc3cccc(F)c3)c(-c3ccc(Cl)cc3)nc12 | inconclusive [cytotoxic, single point] | –
4 | COc1ccccc1Cc1c(-c2ccco2)nc2c(C)cc(Br)cn12 | active: 3.66 µM | –
5 | Cc1c(C(=O)Nc2ccccc2F)sc2ncn(CC(=O)N3CCOCC3)c(=O)c12 | inactive | –
6 | Cc1onc(-c2ccccc2Cl)c1C(=O)N1CCN(c2nc3ccccc3s2)CC1 | inconclusive [cytotoxic, partial curve] | –
7 | COc1cccc(N=CC2=C(O)CCCC2=O)c1 | inconclusive [cytotoxic, single point] | –
8 | CC1Cc2ccccc2N1S(=O)(=O)c1cccc(C(=O)N2CCN(c3ncccn3)CC2)c1 (stereo not drawn) | inconclusive [cytotoxic, partial curve] | –
9 | N/C(Cc1ccc([N+](=O)[O-])cc1)=N\OC(=O)C(c1ccccc1)c1ccccc1 | inconclusive [cytotoxic, single point] | –
10 | C[C@H]1CCC(=O)N([C@H](CSc2ccc(Br)cc2)Cc2ccccc2)CC1 | inactive | –
11 | COc1ccc(NS(=O)(=O)c2cc(C)ccc2C)cc1 | inconclusive [cytotoxic, partial curve] | –
12 | O=c1nc2ccccc2c2n1CC(CN1CCN(c3ccccc3F)CC1)N2 (stereo not drawn) | inactive | –
13 | CCN(CC(=O)NCc1ccc(F)cc1)C(=O)CN1CCN(c2cc(Cl)ccc2C)CC1 | inactive | –
14 | O=C(Cc1ccc(Br)cc1)Nc1cccc(S(=O)(=O)N2CCCCC2)c1 | inconclusive [cytotoxic, single point] | –
15 | Cc1oc(-c2cccc(Cl)c2)nc1CN1CCC(C(=O)N2CCN(c3ccccc3F)CC2)CC1 | inconclusive [cytotoxic, single point] | –
16 | COc1ccc(-c2cc(C(=O)Nc3c(F)cc(F)cc3Br)no2)cc1 | inactive | –
17 | COc1ccc(CCC(=O)Nc2ccc(Br)cn2)cc1 | inconclusive [cytotoxic, single point] | –
18 | O=C(c1cc2ncc(CCCl)cn2n1)N1CCCCCC1 | inactive | –
19 | O=C(N/C(=C/c1ccc(F)cc1)C(=O)N1CCCCC1)c1ccco1 | inactive | –
20 | Cc1ccsc1C(=O)NC(C)c1ccccc1 (stereo not drawn) | inactive | –
21 | CC(C)N(C(=O)[C@H]1C[C@H](CC(=O)NCCCn2ccnc2)C(=O)N2CCc3c([nH]c4ccc(Cl)cc34)[C@]12C)C(C)C | inactive | –
22 | Cc1ccc(CN2CCC2(C)C(=O)NC(C)C)cc1 (stereo not drawn) | inconclusive [cytotoxic, single point] | –
23 | CN1CCC(=C2c3ccccc3CCc3sccc32)CC1 | inconclusive [cytotoxic, single point] | –
24 | COc1cc2nc(N3CCCCC3)nc(NC(C)C)c2cc1OC | inconclusive [cytotoxic, single point] | –
25 | N=C1C(c2nc(-c3ccc(F)cc3)cs2)=C(O)CN1Cc1ccc(Cl)cc1 | inconclusive [cytotoxic, full curve] | –

Row | SMILES | Potency | activity, negative = toxicity
26 | O=c1cc(N2CCN(c3ccccc3Cl)CC2)[nH]c(=O)n1Cc1ccc(F)cc1 | active: 2.59 µM | –
27 | Cc1ccc(-n2nc3c(N4CCC(C(=O)NCc5ccc(C)o5)CC4)nnc(C)c3c2C)cc1 | active: 18.4 µM | –
28 | Cn1c(CS(=O)Cc2c(Cl)cccc2Cl)nnc1SCc1ccc(Cl)cc1 (stereo not drawn) | inconclusive [cytotoxic, partial curve] | –
29 | COc1ccccc1C(CCN(Cc1ccccc1)C(C)=O)c1ccco1 (stereo not drawn) | inconclusive [cytotoxic, single point] | –
30 | N=c1n(CCCOc2ccccc2Cl)c2ccccc2n1CC(N)=O | inconclusive [cytotoxic, single point] | –
31 | c1coc(-c2nc3nc4ccccc4nc3n2CC2CCCO2)c1 (stereo not drawn) | inactive | –
32 | CCN(CC(=O)Nc1ccccc1OC)Cc1csc(CC(=O)Nc2ccc(C)cc2)n1 | inactive | –
33 | CC(C)(C)C1CCc2onc(C(=O)NCc3ccc(F)cc3)c2C1 (stereo not drawn) | inactive | –
34 | COc1ccc(N2c3ccccc3CN(Cc3ccccc3)[C@@H](C)[C@H]2Cc2cccnc2)cc1 | inconclusive [cytotoxic, single point] | –
35 | O=C(/C=C/c1ccc(NC(=O)c2ccccc2-c2ccccc2C(=O)O)cc1)c1ccccc1 | inconclusive [cytotoxic, single point] | –
36 | COc1cccc(Nc2nc(C(N)Cc3ccc(Cl)cc3)cs2)n1 (stereo not drawn) | active: 16.4 µM | –
37 | Cc1cccc(COCC(CC(C)C)N2CCN(C(=O)c3ccc(C(C)(C)C)cc3)CCC2=O)c1 (stereo not drawn) | inconclusive [cytotoxic, single point] | –
38 | Clc1ccc(C2=Nc3cc(Cl)ccc3OC2)cc1 | inactive | –
39 | O=C(NCCCNc1ccc(C(F)(F)F)cc1[N+](=O)[O-])c1cc(F)c(F)cc1Cl | inconclusive [cytotoxic, partial curve] | –
40 | O=c1[nH][nH]c2c1[C@@H](c1ccc(F)cc1)O[C@H](CCc1ccccc1)C2 | inconclusive [cytotoxic, single point] | –
41 | COc1cc(C(=S)N2CCOCC2)ccc1OS(=O)(=O)c1ccc(NC(C)=O)cc1 | inconclusive [cytotoxic, partial curve] | –
42 | O=C1N/C(=C\c2ccc(O)cc2)C(O)=C1C=NCc1ccccc1 | inactive | –
43 | COc1cc(/C=C/c2nc(N)nc(-c3ccccc3O)n2)cc(OC)c1OC | inactive | –
44 | CCN(CCCNC(=O)CC(C(=O)N1CCc2ccccc21)n1ccnc1)c1cccc(C)c1 (stereo not drawn) | inconclusive [cytotoxic, single point] | –
45 | CC(=NNC(=S)SCc1ccccc1)c1ccccn1 | inconclusive [cytotoxic, partial curve] | –
46 | COc1ccc(-c2cn[nH]c2-c2ccc(OCc3ccccc3)cc2O)cc1 | inconclusive [cytotoxic, single point] | –
47 | CC(C)(C)C1CCC(=NNc2ccc(S(N)(=O)=O)cc2[N+](=O)[O-])CC1 (stereo not drawn) | active: 18.4 µM | –
48 | CC(C)(C)Nc1c(C2CCNCC2)nc2c(OCc3ccccc3)cccn12 | inconclusive [cytotoxic, single point] | –
49 | CC(C)NC(=O)CC(c1ccccc1)c1cc(Br)ccc1O (stereo not drawn) | – | inconclusive: -31.9% [cytotoxic]
50 | Cc1ccc(N2CC(C(=O)Nc3ccc(S(=O)(=O)N4CCOCC4)cc3)CC2=O)cc1Cl (stereo not drawn) | inactive | –

Row | SMILES | Potency | activity, negative = toxicity
51 | CCc1c(C)nc2ncnn2c1NCCc1ccc(OC)cc1 | active: 3.55 µM | –
52 | CCc1cc(C(=O)NCC2CCCO2)sc1C (stereo not drawn) | inactive | –
53 | CSc1ccc(CNC(=O)C2CCC(=O)N(Cc3cccc(F)c3)C2)cc1 (stereo not drawn) | inactive | –
54 | CN1CCN(c2ncnc3c2ncn3[C@H]2CN(Cc3ccc(-c4ccccc4)cc3)C[C@@H](CO)O2)CC1 | active: 9.2 µM | –
55 | O=[N+]([O-])c1cccc(-c2csc(Nc3ccccc3)n2)c1 | inconclusive [cytotoxic, single point] | –
56 | COc1ccc(CCC(=O)Nc2nc3ccccc3[nH]2)cc1 | inconclusive [cytotoxic, single point] | –
57 | CCOC(=O)C1=CCC(c2ccccc2C(F)(F)F)N(S(=O)(=O)c2ccc(C)cc2)C1 (stereo not drawn) | inconclusive [cytotoxic, single point] | –
58 | CCOCCCNC(=O)/C(C#N)=C/c1cc(Br)c(O)c(Br)c1 | active: 2.06 µM | –
59 | CC(C)NC(=O)c1cc(C2CCCCN2C(=O)c2ccccc2)on1 (stereo not drawn) | inactive | –
60 | Cc1cccc(N2CCN(C(c3cccs3)c3nnnn3C(C)(C)C)CC2)c1C (stereo not drawn) | inactive | –
61 | COc1ccccc1NS(=O)(=O)c1cccc(C(=O)NCC(c2cccs2)N(C)C)c1 (stereo not drawn) | inactive | –
62 | CCCc1cc(C(=O)Nc2sc3c(c2C#N)CCC3)no1 | inconclusive [cytotoxic, single point] | –
63 | N#C/C(=C\c1ccc(-c2ccccc2)cc1)c1nc(-c2ccco2)cs1 | inactive | –
64 | CC12CCC(C(=O)N(CSC(=S)N/N=C\c3ccccc3)C1=O)C2(C)C (stereo not drawn) | inactive | –
65 | C=CCn1c(SCC(=O)c2ccccc2)nnc1-c1cc2ccccc2o1 | inactive | –
66 | N#Cc1ccc(NC(=O)CN2C(=O)NC(Cc3ccccc3)C2=O)cc1 (stereo not drawn) | inconclusive [cytotoxic, single point] | –
67 | Cc1cc(C)cc(-n2nnnc2SCC(=O)Nc2nc(-c3ccc(F)cc3)cs2)c1 | inconclusive [cytotoxic, single point] | –
68 | Cc1nn(CCC(N)=O)c2nc(-c3cccs3)cc(C(F)(F)F)c12 | inconclusive [cytotoxic, single point] | –
69 | CCCC1=C(C(=O)OCC)C(/C=C/c2ccccc2)n2ncnc2N1 (stereo not drawn) | active: 11.2 µM | –
70 | Cc1[nH]c2ccccc2c1C(=O)C(=O)N1CCN(c2cccc(Cl)c2)CC1 | inconclusive [cytotoxic, single point] | –
71 | Cc1cc(Br)ccc1OCC(=O)N(Cc1nc(-c2ccccc2)no1)C(C)C | inactive | –
72 | CCOC(=O)c1c(NC(=O)COc2ncnc3sccc23)sc2c1CCC2 | inconclusive [cytotoxic, single point] | –
73 | Cc1ccccc1OCC(=O)Nc1cccc2nsnc12 | inconclusive [cytotoxic, partial curve] | –
